We go through 86 molecules from ChEMBL document CHEMBL4888484, “Replenishing the malaria drug discovery pipeline: Screening and hit evaluation of the MMV Hit Generation Library 1 (HGL1) against asexual blood stage Plasmodium falciparum ,using a nano luciferase reporter read-out” (2022).

Each structure is given as a SMILES string. In all, about 150,000 compounds went through this assay and about 540 (0.36%) showed an effect of 50% or more. Some of the results follow.

The subject of the assay is Plasmodium falciparum. The assay is described as follows: Primary screen in NF54 nanoGlo assay, in single point, at 2uM, 72h; a lower Z score goes with more inhibition. Type of assay: functional, Erythrocyte. Conditions: timepoint 72 hour.
As usually defined, the % Inhibition is the change of the read-out against control, counted positive when it falls. Take `CCN(Cc1ccccn1)C(=O)N[C@H]1CCN(Cc2cc(OC)cc(OC)c2)C1`: the “% Inhibition” value was found to be 2% and the Z score is recorded as -0.25.
For `Cc1scc(C(=O)N2CCN(C3CCCCC3)CC2)c1C`, in that order: 1% and -0.22.
Take `COc1ccc(Cl)cc1-n1cc(S(=O)(=O)N[C@H]2CCCNC2)cn1`: the “% Inhibition” value was -15% and the Z score is reported as 1.82.
On the same counts, the results for `N#Cc1ccc(C(=O)N[C@H]2CC[C@H](Oc3ncc(F)cn3)CC2)cc1` are -14% and 2.31.
Consider `CC(C)(C)OC(=O)NCCNC(=O)[C@H]1CC(=O)N(c2n[nH]c3cccc(F)c23)C1`, for which the “% Inhibition” value is -15% and the Z score worked out at 1.89.
Turning to `O=C(c1cccs1)N1CCC(n2cc(-c3ccncc3)nn2)CC1`, the “% Inhibition” value was -17% and the Z score is recorded as 2.6.
For `Cc1ccc(NC(=O)CCCS(=O)(=O)N2CCCC2)cc1O`, in that order: -6% and 0.58.
As for `O=C1CCC(=O)N1C1CC2CCC(C1)N2C(=O)c1cccc(Oc2ccc(F)cc2)c1` (configuration not stated), the “% Inhibition” value was 0% and the Z score is on record as 0.
For the molecule `Cc1ccc2cc(C(=O)NC3(CN4CCCC4)CCCCC3)n(C)c2c1`, the “% Inhibition” value was determined as 1% and the Z score is listed as -0.1.
For `COc1ccc(Cl)cc1C(=O)[C@H]1CCCN(C(=O)CN2CCCC2)C1`, in that order: 2% and -0.43.
On the same counts, the results for `Cc1ccn(CCCS(=O)(=O)C(C)C)c(=O)c1` are -13% and 2.55.
On the same counts, the results for `Cc1nc([C@H](C)N(C)C(=O)N2CCN(C)CC2)c(C)s1` are -5% and 0.86.
`c1ccc(-c2cc(N3CCCCCC3)n[nH]2)cc1`: the “% Inhibition” value was -7% and the Z score stood at 0.94.
As to `CCN(C(=O)c1ccsc1)C1CCCCC1`, the “% Inhibition” value worked out at 2% and the Z score is -0.16.
As for `O=S(=O)(c1cnn(CC(F)F)c1)N(CCc1ccccc1)C1CCCC1`, the “% Inhibition” value was -6% and the Z score was found to be 0.89.
For `C=CCNC(=O)[C@@H]1CCN(c2cccc3ccccc23)C1=O`, in that order: -7% and 1.18.
On the same counts, the results for `CC(C(=O)N1CCCCC1c1ncon1)C1CC1` (configuration not stated) are -3% and 0.57.
On the same counts, the results for `CC[C@@H]1Oc2ccc(NC(=O)c3cccc(OC)c3)cc2CN(Cc2cccc(OC)c2)C1=O` are -3% and 0.51.
As to `CCOC(=O)Cc1csc(NC(=O)CCC2CCCCC2)n1`, the “% Inhibition” value is recorded as -8% and the Z score came to 1.03.
With `CC(C)CN1CC2(CCN(C(=O)c3cnc(C4CC4)nc3)CC2)CC1=O`, the “% Inhibition” value is listed as 7% and the Z score is listed as -0.94.
On the same counts, the results for `Cc1cc(C(=O)O[C@@H](C)C(=O)N2CCCCCC2)c(C)n1Cc1ccc(S(N)(=O)=O)cc1` are 2% and -0.32.
As to `CC[C@H]1COCCN1C(=O)Nc1nc2c(s1)CCCC2`, the “% Inhibition” value is recorded as -17% and the Z score worked out at 2.5.
On the same counts, the results for `Cc1cc(C(=O)N2CCOc3ccccc3[C@@H]2CO)[nH]n1` are -2% and 0.28.
`Cc1cccc(CN2CCc3ccc(OC(C)C(=O)NCc4cccc(F)c4)cc3C2c2ccccc2)c1` (configuration not stated): the “% Inhibition” value is reported as -5% and the Z score was 0.75.
With `Cc1cccc(S(=O)(=O)Nc2ccc3c(c2)C(=O)N(C)c2cc(C)ccc2O3)c1`, the “% Inhibition” value is recorded as -11% and the Z score turned out to be 1.27.
On the same counts, the results for `CN1c2ncccc2CN(Cc2c[nH]c3ccccc23)CC[C@H]1CO` are 3% and -0.47.
Take `Cc1cc(N2CCCCCC2)n2nc(-c3ccccc3C)nc2n1`: the “% Inhibition” value is -16% and the Z score turned out to be 2.89.
For `Cc1ccc(-n2nc(C(=O)NCc3ccco3)c(=O)n([C@@H](C)c3ccccc3)c2=O)cc1F`, in that order: -17% and 1.68.
Consider `COCC1(NC(=O)c2cccc(-c3ccc(F)c(C(N)=O)c3)c2)CCCC1`, for which the “% Inhibition” value came to 5% and the Z score was -0.84.
For `COC1(CNC(=O)c2ccccc2C(C)=O)CCC1`, in that order: 3% and -0.39.
For `N#Cc1ccnc(O[C@H]2CCCN(C(=O)CN3C(=O)CCC3=O)C2)c1`, in that order: -2% and 0.41.
For `Cc1cc(C)nc(NCCc2cccs2)n1`, in that order: -8% and 1.34.
In the case of `CCc1nc(C)c(C(=O)N[C@@H](C)C(C)(C)C)s1`, the “% Inhibition” value was -6% and the Z score is reported as 0.55.
As to `COc1ccccc1CNC(=O)c1cc(C)c2c(c1)-c1ccccc1S(=O)(=O)N2C`, the “% Inhibition” value is -12% and the Z score is 1.47.
On the same counts, the results for `COCCC(=O)NCCc1ncc(C)n1C1CCCCCCC1` are -1% and 0.16.
As for `CC[C@@H](CNC(=O)NCc1cccnc1)Oc1ccccc1`, the “% Inhibition” value came out at 2% and the Z score is -0.22.
Take `Cn1nc2cc(Br)ccc2c1C(=O)N1CC(n2ccnn2)C1`: the “% Inhibition” value was -5% and the Z score amounted to 0.57.
On the same counts, the results for `Cc1ccc2c(c1)OCCN2Cc1cc(C(N)=O)cs1` are -17% and 1.75.
On to `Cc1cc(C)cc(CN2CCN(C(=O)c3cnn[nH]3)CC2=O)c1`, for which the “% Inhibition” value was -9% and the Z score stood at 1.61.
With `Cn1nc(CC2CCN(Cc3ccoc3)CC2)n(-c2ccccc2)c1=O`, the “% Inhibition” value came out at 0% and the Z score is on record as -0.04.
On the same counts, the results for `O=C(NCCOCCn1ccnc1)c1cncc(F)c1` are -5% and 0.55.
On the same counts, the results for `O=C(CN1CCc2nocc2C1)N1CCCCC1` are 8% and -0.99.
In the case of `CCCc1nc(C(=O)N2CCNC(=O)[C@@H]2Cc2ccccc2)cs1`, the “% Inhibition” value is listed as 0% and the Z score amounted to 0.03.
For `O=C(COc1ccccc1-c1nnc[nH]1)NCc1ccco1`, in that order: 29% and -3.25.
For `CCOC(=O)c1ccc2nc(-c3cccc(OC)c3)cc(OCC(=O)Nc3ccc(Cl)cc3)c2c1`, in that order: -8% and 1.34.
On the same counts, the results for `O=S(=O)(Nc1cccc2cccnc12)c1cccs1` are 55% and -5.93.
In the case of `CO[C@@]1(C)CCCN(C(=O)NCC2(CC#N)CC2)CC1`, the “% Inhibition” value was -15% and the Z score is 1.24.
For `Cn1cc(CN2CC[C@H](c3nc4ccccc4[nH]3)C2)c2ccccc21`, in that order: 33% and -3.77.
On the same counts, the results for `CC1CN(C(=O)C2(C(F)(F)F)CCC2)C1` are 6% and -0.99.
On the same counts, the results for `CC1(C)CN(CC(=O)NC2CCCC2)c2ccccc2O1` are -7% and 1.02.
Take `O=C(NCC#CCOc1ccc2c(c1)OCO2)c1ccc(=O)[nH]c1`: the “% Inhibition” value is reported as -15% and the Z score was 1.95.
Consider `CCOCC(O)CN(C)CC(C)c1ccccc1` (configuration not stated), for which the “% Inhibition” value is reported as -3% and the Z score is 0.37.
For `CC(C)(C)c1csc(Cn2cncc(Br)c2=O)n1`, in that order: -19% and 2.37.
`CNc1snc(C)c1C(=O)Nc1nc(C(C)C)cs1`: the “% Inhibition” value was -7% and the Z score came to 1.01.
For `CC1CC(C)CN(C(=O)CNC2(c3nccs3)CCCC2)C1` (configuration not stated), in that order: -11% and 1.73.
Turning to `Cc1cc(C(=O)NC[C@H]2CCCN(c3ncc(C#N)c(N)n3)C2)no1`, the “% Inhibition” value is -11% and the Z score was 1.23.
Take `O=C(Nc1ccc2oc(-c3ccc(Cl)cc3Cl)nc2c1)c1cc(-n2cnnc2)ccc1Cl`: the “% Inhibition” value turned out to be 1% and the Z score is -0.12.
`O=c1[nH]c2cc(Br)cnc2[nH]1`: the “% Inhibition” value is listed as -5% and the Z score was 0.61.
For `COc1ccc(C(=O)N2C[C@H](O)[C@@H](N(C)Cc3cnccn3)C2)cc1`, in that order: 13% and -1.66.
Regarding `CN(C)c1ccc(C(=O)N2CCC(Cn3cnc(C4CC4)cc3=O)CC2)nn1`, the “% Inhibition” value is recorded as -12% and the Z score amounted to 1.72.
As for `C=CCn1cc(CNCC2(CC(C)C)CCC2)cn1`, the “% Inhibition” value is -3% and the Z score is given as 0.59.
On the same counts, the results for `COc1ccc(Cn2nc(C)nc2[C@@H]2CCCN3CCCC[C@H]23)cc1` are -15% and 1.97.
On the same counts, the results for `COc1ccccc1C(=O)N[C@@]1(C(F)(F)F)Nc2nc3ccccc3n2C1=O` are 1% and -0.2.
For `O=C(C[C@H](c1ccc(Cl)c(Cl)c1)c1c[nH]c2ccc(Cl)cc12)Nc1ccccc1`, in that order: 1% and -0.11.
For `COc1ccccc1CNc1nc(-c2nonc2N)no1`, the “% Inhibition” value was -7% and the Z score is 0.92.
For `O=C(Cn1ccc2c(Cl)cccc21)NC[C@@H]1CCCN2CCCC[C@H]12`, in that order: 16% and -3.06.
For `Cn1nc(C(=O)N2CCOC3CCCCC32)c2ccccc2c1=O` (configuration not stated), the “% Inhibition” value is -11% and the Z score came to 1.84.
For `CN(Cc1cnc2ccccc2c1)C(=O)CCc1csc(N)n1`, in that order: -10% and 1.48.
On the same counts, the results for `CCn1nc(C)cc1C(=O)N1CCC[C@H](c2nc3c(C)cccc3[nH]2)C1` are -1% and 0.13.
For `CNc1cc([C@H]2C[C@H](NC(=O)CN3CCC(C)CC3)C2)ncn1`, in that order: 1% and -0.23.
With `CCC(C)(C)C(=O)N1CCC(N2C(=O)CC[C@H]2C(=O)NC(C)C)CC1`, the “% Inhibition” value is reported as -14% and the Z score was 2.68.
On to `COCc1nnc([C@@H]2CC(F)(F)CN2C(=O)c2ccoc2C)o1`, for which the “% Inhibition” value is on record as 10% and the Z score is reported as -1.73.
With `COc1ccc(C(=O)N2CCCCC[C@@H]2CN2CCOCC2)cc1OC`, the “% Inhibition” value is reported as -3% and the Z score is listed as 0.45.
Consider `Cc1ccccc1-n1cc(-c2ccccc2)c2c(N3CCc4ccccc4C3)ncnc21`, for which the “% Inhibition” value was found to be 28% and the Z score is given as -3.8.
For `Cc1ccccc1C[C@@]1(C2CCNCC2)NC(=O)N(CCc2ccncc2)C1=O`, in that order: -11% and 1.09.
On the same counts, the results for `Cc1ccc(OCc2nc(COc3ccccc3)nn2CC(C)(C)O)cc1` are -2% and 0.26.
Take `CC(=O)N[C@@H](C)C(=O)NCc1nc(-c2cccc(F)c2)c(-c2ccccn2)[nH]1`: the “% Inhibition” value was determined as 27% and the Z score is given as -3.81.
For `CC(C)(C)OC(=O)N[C@H]1CNC[C@@H]1c1ccccc1F`, in that order: -6% and 1.23.
For `Cc1ccc(NC(=O)c2cccn2-c2cccnc2)cc1C`, in that order: -5% and 0.48.
For `COc1c[nH]c(C(=O)NCCOc2ccccc2F)cc1=O`, in that order: -7% and 1.23.
As to `COC(C)(C)CS(=O)(=O)Nc1cccc(Cl)c1O`, the “% Inhibition” value amounted to 0% and the Z score is -0.07.
On to `CC(C)(C)Cc1nnc(NCc2cc(C#N)cs2)o1`, for which the “% Inhibition” value was -21% and the Z score turned out to be 1.86.
Take `CCn1ccc(C(=O)N[C@@H]2[C@H]3CCO[C@H]3[C@H]2COC)n1`: the “% Inhibition” value worked out at 9% and the Z score is given as -1.31.
In the case of `CN(CCCc1ccccc1)c1cc(C2CC(O)C2)ncn1` (configuration not stated), the “% Inhibition” value is recorded as -21% and the Z score is given as 2.13.
On to `CCCCOC1CC(N(C)Cc2nnnn2-c2ccccc2)C1(C)C` (configuration not stated), for which the “% Inhibition” value is -11% and the Z score is 1.72.
On the same counts, the results for `Cc1cnccc1-c1cccc(C(=O)NC2(C(N)=O)CCCCCC2)c1` are -3% and 0.58.
